# Laboratory results published in publication PMC6919601, “Identification of Plasmodium dipeptidyl aminopeptidase allosteric inhibitors by high throughput screening” (PLoS ONE, 2019).
# Out of some 110,000 compounds screened, about 230 (0.21%) showed an effect of 50% or more. The list shows a part of the results.
# Target: DPAP1 (Plasmodium falciparum, UniProt Q8IIJ9)
# Assay: primary screen, percent inhibition; read by cleavage of a fluorogenic dipeptide substrate; higher = more effect of the substance
# Design: species or system P. falciparum D10 trophozoite lysates; single well
# 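Note: 30 min substrate incubation versus DMSO and 10 µM JCP410 controls.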
# DPAP1, sequence (Q8IIJ9 whole entry, looked up): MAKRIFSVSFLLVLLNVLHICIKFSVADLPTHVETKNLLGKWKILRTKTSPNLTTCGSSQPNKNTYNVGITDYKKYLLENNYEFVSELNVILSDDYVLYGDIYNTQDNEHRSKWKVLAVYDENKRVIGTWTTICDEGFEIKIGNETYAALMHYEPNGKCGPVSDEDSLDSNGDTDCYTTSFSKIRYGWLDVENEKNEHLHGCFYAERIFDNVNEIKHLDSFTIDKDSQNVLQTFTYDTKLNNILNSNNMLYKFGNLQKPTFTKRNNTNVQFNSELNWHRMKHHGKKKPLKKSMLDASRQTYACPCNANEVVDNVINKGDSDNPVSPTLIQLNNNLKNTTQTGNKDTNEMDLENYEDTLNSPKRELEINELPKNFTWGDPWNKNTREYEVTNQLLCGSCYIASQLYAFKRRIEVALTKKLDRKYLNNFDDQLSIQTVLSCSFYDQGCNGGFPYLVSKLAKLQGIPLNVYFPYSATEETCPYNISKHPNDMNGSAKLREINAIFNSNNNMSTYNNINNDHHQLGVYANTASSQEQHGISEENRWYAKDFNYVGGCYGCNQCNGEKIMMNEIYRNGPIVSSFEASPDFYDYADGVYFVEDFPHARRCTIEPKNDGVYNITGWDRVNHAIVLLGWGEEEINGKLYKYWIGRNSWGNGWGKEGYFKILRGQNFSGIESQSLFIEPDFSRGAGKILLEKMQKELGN
row,SMILES,% Inhibition @ 10 uM [%]
1,Cn1c(=O)n(Cc2cccc(F)c2)c(=O)c2c1ncn2Cc1ccccc1,0.727
2,Cc1[nH]c2ccccc2c1/C=C1\C(=N)N2N=C(S(=O)(=O)CC(C)C)SC2=NC1=O,-3.35
3,CC(C[C@H](NC(=O)OCc1ccccc1)C(=O)NCC#N)c1c(F)cccc1F (stereo partly drawn),0.079
4,Cc1nc(NCCc2cccs2)c2c3c(sc2n1)CCCC3,-0.999
5,COc1cc2c(cc1OC)C(C)N(CCC(N)=O)CC2 (stereo not drawn),-1.82
6,C=C(C)Cn1c(SCC(N)=O)nc2sc3c(c2c1=O)CCCC3,-0.725
7,COc1cc(/C=C2\N=C(c3cccc(C)c3OC)OC2=O)cc(OC)c1OC,7.46
8,CN1CC=C(/C=C/c2ccc3c(c2)OCO3)CC1,0.847
9,Cc1c2cnn(CC(=O)NCCCN3CCCCC3C)c(=O)c2c(C)n1Cc1ccccc1F (stereo not drawn),-0.447
10,COc1ccccc1N1C(=O)CC(N2CCN(C)CC2)C1=O (stereo not drawn),-6.08
11,Cc1nc(Cl)sc1C(=O)Nc1ccc2ccccc2c1,-7.4
12,Cc1nn(CC(=O)N2CCC(N3CCCCC3)CC2)c(=O)c2c1sc1ccccc12,-0.698
13,COc1cc(OC)cc(C(=O)Nc2cc(OC)ccc2OC)c1,-4.15
14,Cc1c(Cl)ccc(S(=O)(=O)N2CCN=C2c2ccccc2)c1Cl,5.49
15,O=c1oc2ccc3ccccc3c2cc1-c1cn2cccnc2n1,-2.6
16,COc1ccc(CCNCc2c(C(=O)O)c(C)n(Cc3ccccc3C)c2C)cc1OC,-0.23
17,Cc1c(CNCCc2ccccc2)c(C(=O)O)c(C)n1Cc1ccc(F)cc1Cl,-3.67
18,Cc1ccc2c(=O)cc(C(=O)NCc3ccc4c(c3)OCO4)oc2c1C,-3.24
19,N#CC1=C2SCN(Cc3cccnc3)CN2C(=O)CC1c1ccc(F)cc1 (stereo not drawn),55.3
20,O=C1NC(=S)N/C1=C\c1cc2c(c([N+](=O)[O-])c1)OCO2,3.83
21,O=C1C2CC=CCC2C(=O)N1c1ccc(Cl)cc1O (stereo not drawn),2.46
22,Clc1ccc(CN2CCN(c3ncccn3)CC2)cc1Cl,-4.61
23,Cc1cc(C)n(-c2cc(-n3nc(C)cc3C)ncn2)n1,-3.82
24,CCOc1ccccc1/C=C1\S/C(=N/c2ccc(C(=O)O)cc2)N(C)C1=O,-3.87
25,COc1cc(C2C(C#N)=C(N)OC3=C2C(=O)CC(c2ccco2)C3)cc(OC)c1OC (stereo not drawn),-2.83
26,O=C(O)C1CC(=O)N(CCOc2ccccc2)C1 (stereo not drawn),-3.78

row,SMILES,% Inhibition @ 10 uM [%]
1,CC(C)CC(NC(=O)c1cccc(NC(=O)NCc2ccccn2)c1)C(=O)NCC#N (stereo not drawn),-2.35
2,Cn1cnc2c(=O)oc3ccc(S(=O)(=O)N4CCC(Cc5ccccc5)CC4)cc3c21,3.8
3,CCOc1ccc(CC(=O)Nc2sc3c(c2C#N)CCCC3)cc1OCC,-6.84
4,O=C(NCc1ccccc1)C1Cc2ccccc2CN1S(=O)(=O)c1cccs1 (stereo not drawn),-1.52
5,CCCCOc1ccc(C(=O)N/C(=C\c2ccc3c(c2)OCO3)C(=O)OC)cc1,-1.81
6,COc1ccc(CN2CCC(N3CCCCC3)CC2)cc1,-4.6
7,COc1ccc2c(c1OC)C(=O)N(c1cccc(Cl)c1)C2=O,9.75
8,Cc1nc2c(C)cccn2c1C(=O)c1ccccc1,0.66
9,CCOc1ccc2nc(SCC(=O)Nc3ccccc3C(=O)O)sc2c1,-0.305
10,CC12CN3CC(C)(CN(C1)C3C(O)C(O)C(O)CO)C2=O (stereo not drawn),-0.712
11,Cc1c(C(=O)N2CCOCC2)oc2c1-c1nn(Cc3ccc(Cl)cc3)cc1CC2,2.73
12,CCOC(=O)N1CCC(NS(=O)(=O)c2ccc3[nH]c4c(c3c2)CCCC4)CC1,-0.35
13,CC(C)c1ccc(NC(=O)c2ccco2)cc1,1.48
14,COc1cc(C2C3=C(O)CC(C)(C)CC3=NC(C)=C2C(=O)N2CCCCC2)cc(OC)c1O (stereo not drawn),-1.48
15,CCCCN(CCCNC(=O)c1cc(C)nn1-c1ccccc1)Cc1ccccc1,-0.138
16,CC(C)CC(=O)Nc1nc(-c2ccc(S(=O)(=O)N3CCOCC3)cc2)cs1,-3.65
17,CCOC(=O)C1CCCCN1Cc1ccc(Cl)cc1Cl (stereo not drawn),1.55
18,CC(C)(O)C#Cc1ccc(C(=O)N2CCN(c3ccc(Cl)cc3)CC2)cc1,3.65
19,NS(=O)(=O)c1ccc(NC(=S)NC(=O)/C=C/c2ccccc2)cc1,-7.25
20,N#CCC(=O)c1ccc(Br)cc1,0.66
21,CCOC(=O)N1CCC(Nc2ccc(Cl)c([N+](=O)[O-])c2)CC1,-5.44
22,CCOc1cc(C2C3=C(O)CC(C)(C)CC3=Nc3ncnn32)ccc1OC(F)F (stereo not drawn),1.73
23,COC1CCCCC1NCCc1cccc(F)c1 (stereo not drawn),-9.04
24,Cc1nc2cc(-c3ccccc3)nn2c(C)c1CC(=O)N1CCCCCC1,0.953
25,CCNc1oc(COc2ccc(OC)cc2)nc1C#N,1.35
26,CCN(C(=O)c1ccc(Cl)cc1)c1ccccc1C,-4.3

row,SMILES,% Inhibition @ 10 uM [%]
1,Cc1cccn2c(=O)c3cc(C(=O)NC4CCCC4)n(C)c3nc12,0.522
2,CC(=O)OC1CCC2(C)C(=CCC3C2CCC2(C)C3CC3CCCCC32C(C)=O)C1 (stereo not drawn),-5.23
3,CNC(=O)/C(=C\c1ccc2c(c1)OCO2)NC(=O)c1ccc(Br)o1,-0.941
4,C1=Nc2ccccc2-c2ccccc2N1,-0.828
5,Clc1ccc(-c2nc(-c3ccccc3)no2)c(Cl)c1,-3.77
6,Nc1sc2c(c1C(=O)NCc1cccnc1)CCCCC2,-5.06
7,CCOc1ccccc1CN1CCN(c2cccc(Cl)c2)CC1,-1.07
8,N#CC1=C(N)Oc2nc(O)nc(O)c2C12C(=O)Nc1ccc(Br)cc12 (stereo not drawn),-0.216
9,COc1ccc(C2C(C(C)=O)=C(O)C(=O)N2Cc2cccnc2)cc1OC (stereo not drawn),-6.27
10,Cc1ccc(C2C(=O)N(C3CCCCCC3)CC(=O)N2Cc2ccc3c(c2)OCO3)cc1 (stereo not drawn),2.79
11,O=C(NCc1ccc(Cl)cc1)C1c2ccccc2Oc2ccccc21,-3.14
12,Cc1nc2c(-c3ccccc3)c(C)nn2c(C)c1CC(=O)O,-1.03
13,Cc1ccc(CNC(=O)CCn2nc(C)c3c(C)n(-c4ccccc4)nc3c2=O)o1,-8.55
14,NC(=O)CSc1nc2nccnc2c(=O)n1Cc1cccs1,3.36
15,CCOC(=O)C1=C(Cc2ccc(OC)cc2)C(=O)c2ccccc2C1=O,6.8
16,COc1ccc(C(=O)N2CCN(C(c3ccccc3)c3ccccc3)CC2)cc1OC,2.43
17,COc1ccc(-c2nc(N)n(C(=O)Cc3ccccc3)n2)cc1,2.32
18,CCOc1ccc(C(=O)c2nc(O)c3ccccc3c2O)cc1,5.32
19,Cc1ccc(NC(=O)CSc2nc(N)cc(N)n2)cc1,5.53
20,COc1cccc(/C=N/N=C(N)N)c1O,19.2
21,COc1ccc(C(=O)NCc2ccc(S(N)(=O)=O)cc2)c(OC)c1,3.25
22,CCN(CC)CC(O)COc1ccc(C2C3=C(CC(C)(C)CC3=O)OC3=C2C(=O)CC(C)(C)C3)cc1 (stereo not drawn),2.13
23,COc1ccc(CCNC(=O)c2oc3ccc(C)cc3c2C)cc1OC,-1.36
24,Cc1cc(C)nc(SCCn2c(N3CCN(C)CC3)nc3c2c(=O)n(C)c(=O)n3C)n1,-2.71
25,CCc1ccc(OCCCC(=O)NCc2ccccc2)cc1,-4.63
26,CCCC(=O)NCCc1nc2ccccc2n1C(C)C,-1.29

row,SMILES,% Inhibition @ 10 uM [%]
1,COc1ccc(CNCc2cc(F)ccc2F)cc1,-7.39
2,COc1nc(-c2ccc(C)cc2)nc2ccccc12,-7.35
3,COc1cccc(C2=NOC(C(=O)N3C(C)CCCC3C)C2)c1OC (stereo not drawn),-11.8
4,O=C(Nc1ccc(-c2cn3cccnc3n2)cc1)c1ccccc1,-3.45
5,COc1ccc(C2=N/C(=C\c3ccc(OC)cc3OC)C(=O)O2)cc1,1.11
6,CCN(CC)S(=O)(=O)N1CCC(C(=O)NC2CCCC2)CC1,-0.519
7,CCOc1cc2ccccc2cc1C(=O)Nc1ccccn1,3.47
8,CCC(C)NC(=O)CSCc1nc(-c2ccc(OC)c(OC)c2)oc1C (stereo not drawn),-1.05
9,CCCCCC(C)NC(=O)C(CC)Oc1ccccc1 (stereo not drawn),1.13
10,Oc1ccccc1-c1nc(O)c2c(n1)Oc1ccc(Cl)cc1C2,3.92
11,Cc1ccc2nc(N(CCCN(C)C)C(=O)COc3ccc(Cl)cc3)sc2c1,-10.8
12,Cc1ccc2[nH]c3c(c2c1)CN(C)CC3,1.63
13,CS/C(=C\C(=O)c1cccs1)C(C)C(=O)c1cccs1 (stereo not drawn),7.02
14,O=c1c2ccccc2nc(/C=C/c2cc(Br)ccc2O)n1CCCO,-0.941
15,CC1CN(Cc2cc(F)ccc2F)CC(C)O1 (stereo not drawn),-1.75
16,Cc1c(C(=O)NCc2cccnc2)oc2c1-c1nn(Cc3ccccc3Cl)cc1CC2,-2.37
17,CCc1ccc(-c2cn3nc(N4CCC(C(=O)NCCOC)CC4)sc3n2)cc1,-3.34
18,CN(CCc1ccccc1)CC(O)c1ccccc1 (stereo not drawn),1.57
19,CC(=O)NS(=O)(=O)c1cnccc1Sc1ccc(Cl)c(Cl)c1,-1.59
20,O=C(NCCCN1CCOCC1)c1cc(-c2ccccc2)nc2ccccc12,-2.09
21,CCC1CCCCN1C(=O)C1C2CCC(O2)C1C(=O)O (stereo not drawn),-4.82
22,O=C(c1ccccc1)N1CC(COc2ccccc2)OC(c2cccc(O)c2)O1 (stereo not drawn),-1.06
23,CC(C)CNC(=O)c1ccc(Cl)cc1Cl,1.38
24,COc1cc2c(cc1/C=C1\SC(=O)N(CCOc3ccc(F)cc3)C1=O)OCO2,0.316
